This is one part of the list.
target: T1, OsWOX13 (Oryza sativa, UniProt Q5QMM3 1-267); test: protein-binding microarray (RPBM); PBS, 2% BSA, 51.3 ng/ul salmon testes DNA, 50 uM zinc acetate, 200 nM TF, 25 C, 1 h; high values mean tight binding; details: protein: recombinant; tags: N-terminal polyhistidine and DsRed monomer fusion (pET32a); label: CyDye5-dUTP incorporated in the synthesized complementary strand; 3' TTTTT single-stranded linker to array surface; dsDNA, one strand shown
T1 sequence: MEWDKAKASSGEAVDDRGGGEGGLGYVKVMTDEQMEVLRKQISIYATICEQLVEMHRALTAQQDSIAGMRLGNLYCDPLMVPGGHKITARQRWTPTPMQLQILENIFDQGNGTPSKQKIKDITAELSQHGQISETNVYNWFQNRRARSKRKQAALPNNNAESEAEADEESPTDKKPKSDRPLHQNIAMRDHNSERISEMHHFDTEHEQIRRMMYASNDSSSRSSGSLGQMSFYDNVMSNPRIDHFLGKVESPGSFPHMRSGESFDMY
How it was run: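 Ni–NTA purification followed expression in E. coli BL21-CodonPlus of transcription factors fused N-terminally to a polyhistidine tag and DsRed. At 200 nM in PBS with 2% BSA, salmon testes DNA and 50 µM zinc acetate, the protein was incubated for 1 h at 25 °C with a custom Agilent array that had been primer-extended with Cy5-dUTP and blocked with 2% BSA. After washing, the array was read on an Axon 4000B scanner. The binding signal is per-feature fluorescence intensity in arbitrary units.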

Sequence	binding signal
CAGGTTGTGATTGATATTTTACATCTAGAACAACGTAATTCGGAGTCACCTAGTGCAG	32900 fluorescence intensity (a.u.)
GAAGGATTAATGAATTAACCACGTGCGCAAAATCACACGTCGGAGTCACCTAGTGCAG	4560 fluorescence intensity (a.u.)
GTATGTTGTAATTAAGGAAACACGTAACTTCTATACCCCGCGGAGTCACCTAGTGCAG	3850 fluorescence intensity (a.u.)
TACATATAATTAAACTGTACTAGTAGAGACAACCAGAGAACGGAGTCACCTAGTGCAG	7360 fluorescence intensity (a.u.)
GGCTTGATTTATTGATTTGTTCTTTAGTACTCCAGTTCAACGGAGTCACCTAGTGCAG	25700 fluorescence intensity (a.u.)
AAATTTAGGTTAATTGGATCCATACCATTATAAATGTGATCGGAGTCACCTAGTGCAG	14100 fluorescence intensity (a.u.)
CTTAATTACTACTAGTATTTTACTTAAGCAAGTCATCTCTCGGAGTCACCTAGTGCAG	20700 fluorescence intensity (a.u.)
TTATGTAATTATTAATTCTTTTCCTATCATTTAATTTATTCGGAGTCACCTAGTGCAG	12400 fluorescence intensity (a.u.)
ATGTCAATTTTCTCGCGTCCGTCCTATCTCTCGTGTTTTACGGAGTCACCTAGTGCAG	4620 fluorescence intensity (a.u.)
TTATAAATTAACTTTTGACAGTTTCGTAGTCAGTCACAGACGGAGTCACCTAGTGCAG	31600 fluorescence intensity (a.u.)
TCGCCATGATTGATCTGATTGCCTACTTAAATTACATTTCCGGAGTCACCTAGTGCAG	50800 fluorescence intensity (a.u.)
AGCCGTTAGCATATTAGTTTCAATCACACGCACTGCTACCCGGAGTCACCTAGTGCAG	4760 fluorescence intensity (a.u.)
GTTCAATGATTAATCAGAGTTCTGTGAAGTAGTGTTTATACGGAGTCACCTAGTGCAG	19800 fluorescence intensity (a.u.)
TTTTAATTTTAGCTTTCCACCGCCCTGCACATGTAACTGCCGGAGTCACCTAGTGCAG	3270 fluorescence intensity (a.u.)
CTTAATTTGCTTACAATTCCTTCAACTACTAATTAAGTATCGGAGTCACCTAGTGCAG	34100 fluorescence intensity (a.u.)
TTTCAATTAATTTTCTGCAGTCGTACATACTTGCGTTTCTCGGAGTCACCTAGTGCAG	25700 fluorescence intensity (a.u.)
TGATGCTGAGAAATATCTTGATTGGGAGATGGCAATAGAGCGGAGTCACCTAGTGCAG	6700 fluorescence intensity (a.u.)
AATATATTGACTGTTCAGTCAGACTCAGCGGTGGAGGGCACGGAGTCACCTAGTGCAG	21400 fluorescence intensity (a.u.)
ACGGCCAGTTTTACATAATTAATTAATTGTTGGTTACCAACGGAGTCACCTAGTGCAG	27100 fluorescence intensity (a.u.)
AAATTCAATCATAGCTACAAACATTGACATATATTTATCTCGGAGTCACCTAGTGCAG	7520 fluorescence intensity (a.u.)
ATTTGTAATAAAATTTCAAACAATTTAACAAAATGCCCGCCGGAGTCACCTAGTGCAG	3910 fluorescence intensity (a.u.)

Sequence	binding signal
AATATACTTAATTACCTCTATTAGTTAATATACTTAACACCGGAGTCACCTAGTGCAG	12000 fluorescence intensity (a.u.)
ACACATAACTTTTCTATCACATCGTACCAATTTCAACCAACGGAGTCACCTAGTGCAG	5510 fluorescence intensity (a.u.)
ACATTTAATTGATTTTCTGAATTCTACAACGGCATCTTTTCGGAGTCACCTAGTGCAG	40300 fluorescence intensity (a.u.)
ATCTGTGTAGTCAATTATATTCTCCCTGGGGCCAAACGAACGGAGTCACCTAGTGCAG	4100 fluorescence intensity (a.u.)
TCCGTCTTGCCCATTGGCTGATTGGCTTCGCGCTGCAGTCCGGAGTCACCTAGTGCAG	9010 fluorescence intensity (a.u.)
TGAATGCTGATTGCCTCAGGCCTTCGAGCCCATCAGTTGGCGGAGTCACCTAGTGCAG	20700 fluorescence intensity (a.u.)
ACCTAATTATGCTAACTAGCGCATGTGCATGAGGAATCTACGGAGTCACCTAGTGCAG	14400 fluorescence intensity (a.u.)
TTAAATAAATTACTTTTAAATTAATAAAATGTTTGAATATCGGAGTCACCTAGTGCAG	5500 fluorescence intensity (a.u.)
CATCAACAGTGGAATTAATTGGATTCGGCTACACACAGAACGGAGTCACCTAGTGCAG	6830 fluorescence intensity (a.u.)
TCCCGATCGCTTCAATCATTGATCACCAAAGACACGCTAGCGGAGTCACCTAGTGCAG	15800 fluorescence intensity (a.u.)
CTAAGATTGTGGCCTGATTAACTCATACTATTATTCATTCCGGAGTCACCTAGTGCAG	15500 fluorescence intensity (a.u.)
ATTTAGACACTAATTTAGAGTATTAAATATAGACTACTTACGGAGTCACCTAGTGCAG	8070 fluorescence intensity (a.u.)
TAAGTAATTAATGGAAATTAATTAACAGTAGTAGTATCCACGGAGTCACCTAGTGCAG	41300 fluorescence intensity (a.u.)
GTGACAGACTAATTAACATGCATGCATGGGGCCTGGCCTCCGGAGTCACCTAGTGCAG	24100 fluorescence intensity (a.u.)
ACTTAACTGATCAGTAGCTACAAATGCTGACACAGCTAGGCGGAGTCACCTAGTGCAG	25800 fluorescence intensity (a.u.)
ATGACTTTATTAACAGCAGTAAAATGTTACAGTGAAATTGCGGAGTCACCTAGTGCAG	5710 fluorescence intensity (a.u.)
CGAGGAATTGATGGGCGAGATCACACCAAACAGAGCGAGCCGGAGTCACCTAGTGCAG	11000 fluorescence intensity (a.u.)
ATATAATGAGAACTAGATTGAGGAAATCACAAATCAGATGCGGAGTCACCTAGTGCAG	22500 fluorescence intensity (a.u.)
CACTGACGGAGAAATTTACCGGTCAATGGCCGTCGTCGGTCGGAGTCACCTAGTGCAG	18000 fluorescence intensity (a.u.)
GGATTTTAAATATCTGATTTGACAAAATTTGATCGGATTTCGGAGTCACCTAGTGCAG	7790 fluorescence intensity (a.u.)
AGTTAAACTTTCAATTTTGACGTGGAACTAAACACAGCCACGGAGTCACCTAGTGCAG	6370 fluorescence intensity (a.u.)

Source: paper PMC7819943, “Rice protein-binding microarrays: a tool to detect cis-acting elements near promoter regions in rice”
